# Source: PubChem BioAssay AID1259407 (Chemical Carcinogenesis Research Information System (CCRIS), 2018)
# “Also recorded” adds a separate entry of the source. A number of entries come with more than one value. Only these are listed. No rule for the calls is given here. There may be further records. The values listed for one entry differ, and nothing given here explains why; some may be repeats, others may stem from another dose, organism or construct than stated. Marks in square brackets tell the records apart. Letters count within one entry. Brackets with × say how often a value occurs here.
# Test system: CCRIS mutagenicity, Ames/micronucleus/aberration tests
# Test: CCRIS mutagenicity studies
# [1] = End Point: IN VITRO CHROMOSOMAL ABERRATIONS, Test System: CHL CELLS, Metabolic Activation: NONE
# [2] = End Point: In vitro chromosomal aberrations, Test System: Chinese hamster lung (CHL/IU) cells, Metabolic Activation: None
# [3] = Test System: AMES SALMONELLA TYPHIMURIUM, Strain/Indicator: TA100, Metabolic Activation: NONE, Method: PREINCUBATION
# [4] = Test System: MOUSE LYMPHOMA, Strain/Indicator: L5178Y (TK+/TK-), Metabolic Activation: NONE, Method: SUSPENSION/PLATE
# [5] = Test System: AMES SALMONELLA TYPHIMURIUM, Strain/Indicator: TA98, Metabolic Activation: NONE, Method: PREINCUBATION
# [6] = Test System: Ames Salmonella typhimurium, Strain/Indicator: TA100, Metabolic Activation: None, Method: Preincubation
smiles,measurement,setting,value
O=[As]O,mutagenic call,"End Point: IN VITRO MICRONUCLEUS, Test System: HUMAN FIBROBLAST, HFW CELLS, Metabolic Activation: NONE",active; positive (mainly kinetochore-positive mn); also recorded: inactive; positive (mainly kinetochore-negative mn)
same,mutagenic call,"End Point: IN VIVO MICRONUCLEUS, Test System: BONE MARROW POLYCHROMATIC ERYTHROCYTES, Species: MOUSE, Strain/Sex: BALB/C/MALE, Route: IP INJECTION",inactive; negative; increase in micronucleated polychromatic erythrocytes but not signific; also recorded: active; positive; also recorded: inactive; negative
same,mutagenic call,"End Point: IN VIVO MICRONUCLEUS, Test System: BONE MARROW POLYCHROMATIC ERYTHROCYTES, Species: MOUSE, Strain/Sex: CBA/MALE, Route: IP INJECTION",inactive; negative and active; positive
O=[N+]([O-])C(Br)(Br)Br,mutagenic call,"Test System: AMES SALMONELLA TYPHIMURIUM, Strain/Indicator: TA98, Metabolic Activation: HAMSTER, LIVER, S-9, AROCLOR 1254 (30%), Method: PREINCUBATION",active; positive and inactive; negative
same,mutagenic call,"Test System: AMES SALMONELLA TYPHIMURIUM, Strain/Indicator: TA98, Metabolic Activation: RAT, LIVER, S-9, AROCLOR 1254 (30%), Method: PREINCUBATION",active; positive and inactive; negative
same,mutagenic call,"Test System: AMES SALMONELLA TYPHIMURIUM, Strain/Indicator: TA100, Metabolic Activation: RAT, LIVER, S-9, AROCLOR 1254 (30%), Method: PREINCUBATION",active; positive and inactive; negative
COC(=O)[C@H]1[C@H]2C[C@@H]3c4[nH]c5cc(OC)ccc5c4CCN3C[C@H]2C[C@@H](OC(=O)c2cc(OC)c(OC)c(OC)c2)[C@@H]1OC,mutagenic call,"End Point: IN VITRO CHROMOSOMAL ABERRATIONS, Test System: CHO CELLS, Metabolic Activation: RAT, LIVER, S-9, AROCLOR 1254",inactive; negative; also recorded: inactive; negative; precipitation occurred at 200 ug/ml
O=C(ON=C1C=CC(=NOC(=O)c2ccccc2)C=C1)c1ccccc1,mutagenic call,[1],active; positive (structural changes); also recorded: inactive; negative; also recorded: active; positive (structural changes); authors report equivocal results for ploidy at hi
c1ccc2cc3ccccc3cc2c1,mutagenic call,[2],active; positive (structural changes and ploidy). precipitation in the culture medium at; also recorded: inactive; negative. precipitation in the culture medium at all doses (2×)
same,mutagenic call,[3],inactive; negative [study A] and active; positive [study B]
same,mutagenic call,"Test System: Ames Salmonella typhimurium, Strain/Indicator: TA1535, Metabolic Activation: Rat, Liver, S9, Phenobarbital and 5,6-benzoflavone (10%), Method: Preincubation","inactive; negative. precipitate at three highest doses; also recorded: inactive; negative. precipitate at 313, 625 and 1,250 mg/ml; also recorded: inactive; negative. precipitation at 3 highest doses"
same,mutagenic call,"Test System: Ames Salmonella typhimurium, Strain/Indicator: TA1535, Metabolic Activation: Rat, Liver, S9, Phenobarbital and 5,6-benzoflavone (30%), Method: Preincubation","inactive; negative. precipitate at three highest doses; also recorded: inactive; negative. precipitate at 313, 625 and 1,250 mg/ml; also recorded: inactive; negative. precipitation at 3 highest doses"
C[C@H](CCC(=O)O)[C@H]1CC[C@H]2[C@@H]3CC[C@@H]4C[C@H](O)CC[C@]4(C)[C@H]3CC[C@]12C,mutagenic call,[4],inactive; negative [study A] and inactive; negative [study B] and active; positive [study B]
Nc1c(Oc2ccccc2)cc(O)c2c1C(=O)c1ccccc1C2=O,mutagenic call,[4],inactive; positive. reevaluation of results: negative; also recorded: inactive; negative. reevaluation of results: negative
NN,mutagenic call,[5],inactive; negative and active; positive
same,mutagenic call,[3],inactive; negative and active; positive
ClCC1CO1 (stereo not drawn),mutagenic call,[5],active; positive [study A] and inactive; negative [study B]
same,mutagenic call,"Test System: AMES SALMONELLA TYPHIMURIUM, Strain/Indicator: TA100, Metabolic Activation: RAT, LIVER, S-9, AROCLOR 1254, Method: STANDARD PLATE",inactive; negative [study A] and active; positive [study B]
same,mutagenic call,"Test System: AMES SALMONELLA TYPHIMURIUM, Strain/Indicator: TA1537, Metabolic Activation: NONE, Method: PREINCUBATION",active; positive [study A] and inactive; negative [study B]
COP(=O)(OC)C(O)C(Cl)(Cl)Cl (stereo not drawn),mutagenic call,"Test System: AMES SALMONELLA TYPHIMURIUM, Strain/Indicator: TA100, Metabolic Activation: NONE, Method: FLUCTUATION TEST",inactive; negative and active; positive
O=[N+]([O-])c1ccc(Cl)c(Cl)c1,mutagenic call,[2],active; positive (structural changes and ploidy). precipitation observed in culture medi (2×); also recorded: active; positive (ploidy). precipitation observed in culture medium at 0.16 mg/ml; 0.20
O=C1c2cccc(O)c2C(=O)c2cccc(O)c21,mutagenic call,"Test System: AMES SALMONELLA TYPHIMURIUM, Strain/Indicator: TA1538, Metabolic Activation: RAT, LIVER, S-9, AROCLOR 1254, Method: STANDARD PLATE",active; positive and inactive; negative
O=Cc1ccc(CO)o1,mutagenic call,[6],inactive; negative; also recorded: active; positive (weak response; increase in number of mutants <2 times controls )
FC(F)(F)c1ccc(Cl)c(Cl)c1,mutagenic call,"Test System: Ames Salmonella typhimurium, Strain/Indicator: TA98, Metabolic Activation: None, Method: Preincubation",inactive; negative; also recorded: inactive; negative (2 experimental trials)
same,mutagenic call,"Test System: Ames Salmonella typhimurium, Strain/Indicator: TA98, Metabolic Activation: Rat, Liver, S9, Sodium phenobarbital and 5,6-benzoflavone, Method: Preincubation",inactive; negative; also recorded: inactive; negative (2 experimental trials)
same,mutagenic call,[6],inactive; negative; also recorded: inactive; negative (2 experimental trials)
same,mutagenic call,"Test System: Ames Salmonella typhimurium, Strain/Indicator: TA100, Metabolic Activation: Rat, Liver, S9, Sodium phenobarbital and 5,6-benzoflavone, Method: Preincubation",inactive; negative; also recorded: inactive; negative (2 experimental trials)
same,mutagenic call,"Test System: Ames Salmonella typhimurium, Strain/Indicator: TA1535, Metabolic Activation: None, Method: Preincubation",inactive; negative; also recorded: inactive; negative (2 experimental trials)
same,mutagenic call,"Test System: Ames Salmonella typhimurium, Strain/Indicator: TA1535, Metabolic Activation: Rat, Liver, S9, Sodium phenobarbital and 5,6-benzoflavone, Method: Preincubation",inactive; negative; also recorded: inactive; negative (2 experimental trials)
same,mutagenic call,"Test System: Ames Salmonella typhimurium, Strain/Indicator: TA1537, Metabolic Activation: None, Method: Preincubation",inactive; negative; also recorded: inactive; negative (2 experimental trials)
same,mutagenic call,"Test System: Ames Salmonella typhimurium, Strain/Indicator: TA1537, Metabolic Activation: Rat, Liver, S9, Sodium phenobarbital and 5,6-benzoflavone, Method: Preincubation",inactive; negative; also recorded: inactive; negative (2 experimental trials)
ClC(Cl)C(Cl)(Cl)Cl,mutagenic call,"End Point: IN VITRO CHROMOSOMAL ABERRATIONS, Test System: CHINESE HAMSTER LUNG FIBROBLAST CELLS (CHL/IU), Metabolic Activation: NONE",active; positive (ploidy); authors report a weakly positive response for structural aber; also recorded: inactive; negative; authors report a weakly positive response for ploidy; also recorded: inactive; negative; authors report a weakly positive response for both structural changes
CC(C)[N+](=O)[O-],mutagenic call,[5],inactive; negative [study A] and active; positive [study B] and inactive; negative [study C]
same,mutagenic call,"Test System: CHINESE HAMSTER V-79, Strain/Indicator: V-79/6-THIOGUANINE, Metabolic Activation: NONE",active; positive [study A] and inactive; negative [study B]
Nc1ccc(Cl)cc1N,mutagenic call,"Test System: E. COLI, Strain/Indicator: WP2 UVRA, Metabolic Activation: HAMSTER, LIVER, S-9, Method: STANDARD PLATE",inactive; negative (2×) and active; positive
same,mutagenic call,"Test System: E. COLI, Strain/Indicator: WP2 UVRA, Metabolic Activation: RAT, LIVER, S-9, AROCLOR 1254, Method: STANDARD PLATE",inactive; negative (2×) and active; positive
C=CCc1ccc2c(c1)OCO2,mutagenic call,"Test System: MOUSE LYMPHOMA, Strain/Indicator: L5178Y (TK+/TK-), Metabolic Activation: RAT, LIVER, S-9, AROCLOR 1254, Method: SUSPENSION/PLATE",active; positive [study A] and inactive; negative [study B]
O=NN1CN2CN(C1)CN(N=O)C2,mutagenic call,[1],inactive; negative; authors report equivocal results for structural changes at 0.05 mg/ml; also recorded: active; positive (structural and ploidy changes)
COP(=O)(OC)OC=C(Cl)Cl,mutagenic call,"Test System: AMES SALMONELLA TYPHIMURIUM, Strain/Indicator: TA100, Metabolic Activation: NONE, Method: STANDARD PLATE",inactive; negative [study A] and active; positive [study B] and active; positive [study C]
[Na+],mutagenic call,"End Point: IN VITRO CHROMOSOMAL ABERRATIONS, Test System: CHO-WBL CELLS, Metabolic Activation: NONE","active; positive (structural changes); osmolality of solution decisive factor; also recorded: active; positive (structural changes, ploidy, endo-replication)"
O=C1C(Cl)=C(Cl)C(=O)C(Cl)=C1Cl,mutagenic call,[2],active; positive (structural changes and ploidy); also recorded: active; positive (structural changes and ploidy). toxicity at 0.015 and 0.018 mg/ml (2×)
CNc1ccc(O)cc1,mutagenic call,"Test System: AMES SALMONELLA TYPHIMURIUM, Strain/Indicator: TA100, Metabolic Activation: HAMSTER, LIVER, S-9, AROCLOR 1254 (10%), Method: PREINCUBATION",inactive; negative [10 to 1000 µg/plate] and active; positive [10 to 2000 µg/plate]
CCCCOc1ccc(C=Nc2ccc(CC)cc2)cc1,mutagenic call,"Test System: AMES SALMONELLA TYPHIMURIUM, Strain/Indicator: TA100, Metabolic Activation: HAMSTER, LIVER, S-9, AROCLOR 1254 (30%), Method: PREINCUBATION",active; positive [10 to 1000 µg/plate] and inactive; negative [100 to 10000 µg/plate]
